# The full ranking holds about 16,000 sequences; the median of “Z-score” is about -0.37, and the highest 2% start at about 3.2. The list shows a part of the results.
# Test system: RBM10 RRM1-ZnF (GST-tagged construct)
# Test: RNAcompete 7-mer binding Z-score; higher = stronger binding preference
# Procedure: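 RNAcompete: 20 pmol GST-tagged RBM10 RNA-binding constructs were incubated with a designed RNA pool of about 241,000 sequences up to 41 nt (1.5 nmol) on glutathione beads for 30 min at 4 °C and washed. Bound RNAs were identified by microarray hybridisation. Each RNA 7-mer is scored by a one-sided Z-score of its enrichment, computed over probes that contain the 7-mer within longer pool sequences.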
row,Sequence,RNAcompete 7-mer binding Z-score
1,GGGAUAU,3.1
2,GGUUUAU,0.55
3,UGUUACU,-0.516
4,CUUCAGU,-0.467
5,CAGAACG,0.000789
6,GGAACGA,1.3
7,UCACGAG,-0.363
8,UAAUGGG,2.84
9,AUCCGCU,-0.883
10,GGCCCAC,-0.649
11,CCUUACG,-0.818
12,UAUACAG,-0.321
13,CCCUCGU,-0.727
14,GCGCCUA,-0.652
15,ACCGCUG,-0.662
16,GCAUGAA,0.0983
17,AGGGGCA,2.47
18,UAUGACA,-0.136
19,UAGAGUC,-0.223
20,GUGUUUA,0.27
21,UUGGAGG,2.58
22,UUGCAAU,-0.688
23,UGCACCC,-0.431
24,CUAAAGA,-0.334

row,Sequence,RNAcompete 7-mer binding Z-score
1,GAUUCCA,-0.617
2,UGUUCCG,-0.565
3,UAACAGC,-0.438
4,AGAGAGA,0.244
5,UUCGCAC,-0.714
6,GAAUAUU,-0.324
7,UCUCCCG,-0.623
8,AUAGUGG,1.49
9,GGAUUAU,0.764
10,CACUCAA,-0.548
11,UGGACGA,1.47
12,GUACUAC,-0.191
13,GCUUUCC,-0.633
14,AUACUAG,-0.337
15,UGAUUUG,-0.24
16,UCCGAGU,-0.701
17,ACGAUAU,-0.496
18,GACACUA,-0.457
19,CGUUAUC,-0.798
20,UUACAGA,-0.272
21,AUGUCGC,-0.415
22,GAAGCUA,-0.217
23,GAUCUGC,-0.785
24,CAUUUAC,-0.85

row,Sequence,RNAcompete 7-mer binding Z-score
1,GUUUCGA,-0.396
2,UUGAAAG,0.355
3,UAUCUAU,-0.555
4,GUAGCAA,0.345
5,CGCUGCC,-0.487
6,GAUGUGU,0.625
7,CCCGUCC,-0.571
8,CACCACC,-0.0772
9,CAAAUGA,-0.246
10,UUCAUAA,-0.698
11,UUGAUCG,-0.188
12,UGCUCAA,-0.568
13,GGAUUCA,0.215
14,UAUUGAU,-0.337
15,UAACCAC,-0.578
16,AUUAACA,-0.279
17,AAGGCUC,-0.0804
18,GUCUUUC,-0.792
19,UGUUUCC,-0.6
20,UAACUAC,-0.61
21,CCUUAAC,-0.925
22,UACAUAC,-0.402
23,CAGUUGA,-0.0512
24,AAACUCA,-0.597

row,Sequence,RNAcompete 7-mer binding Z-score
1,GAAAUUC,-0.561
2,UCCCAUG,-0.392
3,AGUUCUU,-0.759
4,CAUACCA,-0.639
5,GGGAAGU,3
6,UCUAGUA,-0.555
7,UGGCAGG,1.8
8,CUCUACC,-0.831
9,UCGUUCU,-0.776
10,UGACUCA,-0.48
11,UUUAGCC,-0.915
12,UAUUCUG,-0.772
13,GAAUACA,-0.155
14,GCAAAAU,-0.246
15,CGACUAC,-0.626
16,CACGACA,-0.386
17,UCUUUGA,-0.613
18,GCCUCUU,-0.844
19,ACAGUGC,0.0333
20,AUGGAUC,0.764
21,CUGCGAC,-0.526
22,CACCCUU,-0.847
23,UGAUCAG,0.244
24,AGGUAUG,2.16

row,Sequence,RNAcompete 7-mer binding Z-score
1,AGAGGCG,0.456
2,UUUCUAU,-0.75
3,UCGGCCC,-0.691
4,UCCACUC,-0.642
5,CUACUAG,-0.392
6,UUGGAGC,1.36
7,CACUGAA,-0.386
8,UCUGACA,-0.662
9,CUCACGU,-0.6
10,UACUCGG,-0.386
11,AUAUGUG,0.54
12,CCUGCAA,-0.73
13,UCGCACA,-0.509
14,CGCGGUC,-0.249
15,CUUAGGU,-0.227
16,GGAUGAU,1.79
17,UAGUUUU,-0.584
18,CUUCAAA,-0.704
19,GGCAUCA,0.28
20,CAAUCUU,-0.87
21,CAGGUGC,1.23
22,UUCUGCC,-0.928
23,GACCCAG,-0.448
24,CGCAAGU,-0.422

row,Sequence,RNAcompete 7-mer binding Z-score
1,UUAUUAA,-0.607
2,GAUGCGU,0.0658
3,ACCACUU,-0.701
4,CACACCU,-0.61
5,GCGGCGG,2.08
6,UUUCAUU,-0.805
7,CUUUUAA,-0.779
8,GUGCAUC,-0.288
9,AUUCUUG,-0.831
10,AACUCUC,-0.753
11,UUUUCGA,-0.678
12,CCCCGCA,-0.331
13,CCGUUUC,-0.928
14,GGUUCGG,1.33
15,UCUUUUC,-0.821
16,UACUUCG,-0.652
17,UUGUUGU,-0.262
18,GUGAAUA,0.313
19,AAUUCAU,-0.633
20,UCAAGUA,-0.405
21,CGUCCCU,-0.766
22,ACGAAUC,-0.5
23,AAAUUGU,-0.396
24,UUACUUC,-0.642

row,Sequence,RNAcompete 7-mer binding Z-score
1,CCGAGGA,0.53
2,CUAUUUU,-0.951
3,CGAGACC,-0.578
4,CUAUUCC,-0.844
5,UCGUACC,-0.665
6,UAGUUCU,-0.805
7,GUGAGGG,3.75
8,UUUUACC,-0.941
9,AACCGAA,-0.529
10,UUGGCAU,-0.262
11,GGAGCCG,0.703
12,CAGUAUU,-0.646
13,UGACUUC,-0.688
14,UUGUGUG,0.157
15,GAACCUC,-0.688
16,AAACUAA,-0.464
17,GAGGGUC,1.44
18,CGAGGAG,1.52
19,CUAUAUU,-0.668
20,UAACGGG,2.01
21,ACUAUUG,-0.513
22,UUCGAUA,-0.642
23,GGUUACC,0.605
24,GCAGCAU,-0.405

row,Sequence,RNAcompete 7-mer binding Z-score
1,AACUACG,-0.295
2,AAUAACU,-0.565
3,CCUAAAC,-0.694
4,GCCGGGG,1.37
5,AGAGCUC,-0.75
6,GUACUAU,-0.149
7,GCGAAAG,0.677
8,UCCCAGC,-0.48
9,UGGCAAG,0.586
10,UCGAACU,-0.724
11,UCCACCC,-0.383
12,ACUAUGG,0.566
13,UGAUACA,-0.155
14,ACUACAA,-0.623
15,CCUCGGA,-0.363
16,ACUCAGU,-0.659
17,GCAUGGC,0.176
18,CUCACCU,-0.785
19,GAGCAGG,2.82
20,CGCACUU,-0.74
21,ACGCCCC,-0.464
22,ACAUCAG,-0.376
23,GAUCAUG,0.0333
24,UCUAACC,-0.766

row,Sequence,RNAcompete 7-mer binding Z-score
1,UUAGUAU,-0.347
2,CGGAGCU,0.423
3,AAAAACG,-0.0447
4,CGAGCAG,0.618
5,UAAUUAU,-0.509
6,AGAGCUU,-0.646
7,CAUUACG,-0.412
8,GAGCUUU,-0.571
9,UAAAUAU,-0.425
10,AACGAAU,-0.334
11,GAUAGGA,2.86
12,UCAUUUA,-0.902
13,UCAAAUU,-0.613
14,GCAGUUC,-0.47
15,CAUUUCU,-0.974
16,AAUGUUG,0.361
17,CUAAAGC,-0.73
18,CGCCAGU,-0.448
19,AGCGACU,-0.5
20,CGAUCUG,-0.591
21,AGCAGAU,0.358
22,CAAUCCU,-0.899
23,GAGUAAG,1.41
24,AAGUGGU,1.82

row,Sequence,RNAcompete 7-mer binding Z-score
1,AGAGUUU,-0.106
2,UAACCUC,-0.617
3,CGGGUUU,1.44
4,UGUGGUU,1.84
5,GGUCUGU,0.196
6,CAGCCGA,-0.578
7,GGGACAG,2.78
8,UGAAAAC,-0.441
9,GUCCGAG,-0.22
10,UACCUCG,-0.659
11,CUCUAGU,-0.811
12,GCCGGUU,-0.0317
13,CGUUGUG,-0.0707
14,CACGAGU,-0.223
15,CUGGCCA,-0.529
16,CUAAAUC,-0.753
17,GCUCUCA,-0.529
18,CGCUUUA,-0.85

# Reference: the supplement of paper PMC5499739
